Experimental data as given in paper PMC3407747.
Results are given in words; binding and its absence hold for the method and conditions named. For some assays here: Binding seen in cells or lysates may run through a third protein. Some entries that bind do so weakly or less than the wild type.

Sequences of proteins named here, by UniProt entry; tags and fusion partners are left off. A change or cut given only in a name is not applied to a line headed by its entry. Residues count along the entry.
UniProt P19491: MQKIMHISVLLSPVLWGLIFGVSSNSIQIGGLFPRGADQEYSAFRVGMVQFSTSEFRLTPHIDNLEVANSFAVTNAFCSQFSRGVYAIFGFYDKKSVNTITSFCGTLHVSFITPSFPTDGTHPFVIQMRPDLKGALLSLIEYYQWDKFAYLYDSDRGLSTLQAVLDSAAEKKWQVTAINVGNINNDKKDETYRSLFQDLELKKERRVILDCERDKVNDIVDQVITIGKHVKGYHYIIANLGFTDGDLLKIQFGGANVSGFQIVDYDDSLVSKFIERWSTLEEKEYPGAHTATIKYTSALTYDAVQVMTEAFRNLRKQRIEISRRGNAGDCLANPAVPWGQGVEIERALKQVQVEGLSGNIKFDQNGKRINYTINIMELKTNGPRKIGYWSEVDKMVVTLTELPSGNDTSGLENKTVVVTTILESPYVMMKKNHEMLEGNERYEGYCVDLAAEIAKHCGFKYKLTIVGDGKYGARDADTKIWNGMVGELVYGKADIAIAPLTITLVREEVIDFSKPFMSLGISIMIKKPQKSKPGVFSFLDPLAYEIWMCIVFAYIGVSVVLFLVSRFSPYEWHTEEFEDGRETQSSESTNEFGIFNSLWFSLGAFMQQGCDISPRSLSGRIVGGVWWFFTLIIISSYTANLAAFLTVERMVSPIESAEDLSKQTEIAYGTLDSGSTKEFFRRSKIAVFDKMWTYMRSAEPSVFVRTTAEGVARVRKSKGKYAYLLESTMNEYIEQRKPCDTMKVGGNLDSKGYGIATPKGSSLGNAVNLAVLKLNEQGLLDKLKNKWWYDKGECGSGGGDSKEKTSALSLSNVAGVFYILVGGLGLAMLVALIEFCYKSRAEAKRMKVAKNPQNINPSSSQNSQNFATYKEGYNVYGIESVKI
GluR2 subunit expressed in HEK-293 T cells (with GluR1): residues 22-883 of P19491
GST-GluR2NT (V22-E545): residues 22-545 of P19491
GST-GluR2NT1 (V22-S271): residues 22-271 of P19491
GST-GluR2NT1-3 (H122-K172): residues 122-172 of P19491
GST-GluR2NT1-3-2 (Y142-K172): residues 142-172 of P19491
GST-GluR2NT2 (K272-I421): residues 272-421 of P19491
GST-GluR2NT3 (L422-E545): residues 422-545 of P19491
GST-GluR2CT (I833-I883): residues 833-883 of P19491
UniProt P04797: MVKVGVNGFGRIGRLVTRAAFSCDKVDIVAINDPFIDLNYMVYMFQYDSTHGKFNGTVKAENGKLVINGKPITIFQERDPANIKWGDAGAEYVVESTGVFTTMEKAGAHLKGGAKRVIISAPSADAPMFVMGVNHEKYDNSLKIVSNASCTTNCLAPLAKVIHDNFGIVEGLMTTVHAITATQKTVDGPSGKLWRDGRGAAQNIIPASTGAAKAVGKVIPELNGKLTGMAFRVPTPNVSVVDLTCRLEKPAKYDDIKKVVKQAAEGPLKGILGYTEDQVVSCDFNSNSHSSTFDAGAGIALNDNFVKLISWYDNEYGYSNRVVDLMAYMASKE
UniProt P04406: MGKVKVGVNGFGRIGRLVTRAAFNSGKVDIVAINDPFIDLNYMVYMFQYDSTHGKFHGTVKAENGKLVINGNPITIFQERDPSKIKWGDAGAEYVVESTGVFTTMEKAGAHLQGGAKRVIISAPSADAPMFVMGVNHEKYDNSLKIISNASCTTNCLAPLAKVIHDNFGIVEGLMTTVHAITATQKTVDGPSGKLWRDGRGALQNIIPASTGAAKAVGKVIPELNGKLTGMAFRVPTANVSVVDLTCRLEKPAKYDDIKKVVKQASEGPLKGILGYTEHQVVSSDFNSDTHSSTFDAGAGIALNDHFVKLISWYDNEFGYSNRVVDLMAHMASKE

Assays:
[1] = target: GluR2 subunit of AMPAR, rat, endogenous (rat (endogenous in hippocampus)) (UniProt P19491); test: co-IP; GluR2 antibody, solubilized proteins from rat hippocampal tissue; blot for GAPDH
[2] = target: GluR2 subunit of AMPAR, rat, endogenous (rat (endogenous in hippocampus)) (UniProt P19491); test: co-IP; GluR2 antibody, 500 ug protein from rat hippocampal neurons, with or without 100 uM kainic acid and pre-incubation with peptide
[3] = target: GluR2 subunit of AMPAR, rat, endogenous (rat (endogenous in hippocampus)) (UniProt P19491); test: condition: only in the non-biotinylated (intracellular) fraction; co-IP; GluR2 antibody; non-biotinylated (intracellular) fraction of primary rat hippocampal neurons labelled with sulfo-NHS-LC-biotin
GST-GluR2CT (I833-I883) = GST-GluR2CT (I833-I883) (UniProt P19491); test: pull-down; GST fusion proteins used for affinity purification from solubilized rat hippocampal lysates; Western blot with a GAPDH antibody; only the target purified
GST-GluR2NT1 (V22-S271) [4] = target: GST-GluR2NT1 (V22-S271) (UniProt P19491); test: as above
[5] = target: GST-GluR2NT1-3 (H122-K172) (UniProt P19491); test: as above
GST-GluR2NT2 (K272-I421) [6] = target: GST-GluR2NT2 (K272-I421) (UniProt P19491); test: as above
[7] = target: GST-GluR2NT1-3-2 (Y142-K172) (UniProt P19491); test: as above
GST-GluR2NT3 (L422-E545) [8] = target: GST-GluR2NT3 (L422-E545) (UniProt P19491); test: as above
GST-GluR2NT (V22-E545) = GST-GluR2NT (V22-E545) (UniProt P19491); test: as above
[9] = target: GluR2 subunit of AMPAR, rat, endogenous (rat (endogenous in hippocampus)) (UniProt P19491); test: co-IP; GluR2 antibody; biotinylated (cell surface) fraction of primary rat hippocampal neurons labelled with sulfo-NHS-LC-biotin, RIPA buffer, streptavidin beads
[10] = target: GluR2 subunit expressed in HEK-293 T cells (with GluR1) (UniProt P19491); test: co-IP; GluR2 antibody, 500 ug protein from HEK-293 T cells expressing GluR1/2, with or without 100 uM glutamate and pre-incubation with peptide
GST-GluR2NT1 (V22-S271) [11] = target: GST-GluR2NT1 (V22-S271) (UniProt P19491); test: in vitro binding assay; in vitro translated [35S]-GAPDH probe with GST fusion proteins; as previously described (refs 85-87); only the target purified
[12] = target: GST-GluR2NT1-3 (H122-K172) (UniProt P19491); test: as above
GST-GluR2NT2 (K272-I421) [13] = target: GST-GluR2NT2 (K272-I421) (UniProt P19491); test: as above
[14] = target: GST-GluR2NT1-3-2 (Y142-K172) (UniProt P19491); test: as above
GST-GluR2NT3 (L422-E545) [15] = target: GST-GluR2NT3 (L422-E545) (UniProt P19491); test: as above

**Q.** Which results are given for “GAPDH (glyceraldehyde-3-phosphate dehydrogenase), rat, endogenous (from UniProt P04797 1-333) (enzyme)”?
**A.** binding [1]: binds; binding [2]: binds; binding [3]: no binding; binding (GST-GluR2CT (I833-I883)): no binding; binding (GST-GluR2NT1 (V22-S271) [4]): binds; binding [5]: binds; binding (GST-GluR2NT2 (K272-I421) [6]): no binding; binding [7]: binds; binding (GST-GluR2NT3 (L422-E545) [8]): no binding; binding (GST-GluR2NT (V22-E545)): binds; binding [9]: binds

**Q.** How did the binding [10] turn out when “GAPDH, endogenous in HEK-293 T cells (from UniProt P04406 1-335) (enzyme)” was run?
**A.** The binding was “binds”.

**Q.** “in vitro translated [35S]-GAPDH probe (from UniProt P04797 1-333) (enzyme)” was tested. Which binding (GST-GluR2NT1 (V22-S271) [11]) did it give?
**A.** Its binding is “binds”.

**Q.** What about the binding [12] of the same substance?
**A.** The binding was “binds”.

**Q.** And the binding (GST-GluR2NT2 (K272-I421) [13])?
**A.** The binding was “no binding”.

**Q.** And the binding [14]?
**A.** Its binding is “binds”.

**Q.** And the binding (GST-GluR2NT3 (L422-E545) [15])?
**A.** The binding was “no binding”.
